# Laboratory results taken from PMC10726135.
# This is one part of the list. At the low end of the ranking, values are background and their order means little. Measured with an extract: partners may take part in the binding.
# Biological target: T1, HNF4alpha2 (COS-7 nuclear extract) (UniProt P41235)
# T1 sequence: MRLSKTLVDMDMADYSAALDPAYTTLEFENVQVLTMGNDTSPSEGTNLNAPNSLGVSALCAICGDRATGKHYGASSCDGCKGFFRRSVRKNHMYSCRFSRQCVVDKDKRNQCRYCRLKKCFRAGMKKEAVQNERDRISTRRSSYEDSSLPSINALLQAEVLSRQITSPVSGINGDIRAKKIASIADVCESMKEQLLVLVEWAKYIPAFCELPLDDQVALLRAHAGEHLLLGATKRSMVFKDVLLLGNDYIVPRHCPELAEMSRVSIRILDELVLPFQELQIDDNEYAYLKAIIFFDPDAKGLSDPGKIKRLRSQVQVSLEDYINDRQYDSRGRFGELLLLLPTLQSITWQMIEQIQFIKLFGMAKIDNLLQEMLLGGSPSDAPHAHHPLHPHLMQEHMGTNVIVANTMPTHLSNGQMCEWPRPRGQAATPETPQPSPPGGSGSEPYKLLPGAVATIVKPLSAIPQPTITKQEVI
# Assay: protein-binding microarray
# Settings: COS-7 nuclear extract on double-stranded Agilent 4x180k PBM; binding buffer, salt, pH and temperature not given; high values mean tight binding; double strand, one strand shown; sequences stand for … in …GCCTAGGGAGATTAGAGTATCGGTCGA
row,Sequence,binding signal (log2 normalized intensity)
1,CATGGCAGACAGCAGTCTGAGTAGGAAAGA,-0.708
2,TGTTCACAGTGACGTTCTGCCCCTTATCTT,3.42
3,ACCCCCGCCCCCATTATCTCCTTAGGTACT,3.23
4,CAGGGTAATGAGTGCTATCCCTGGAGCCTT,-0.509
5,AAGCAGCCCAACAGCATTAAGCTGAGGCAG,-1.14
6,GATGTTTATACAGCCTTGGAAGACACAGAT,-0.0495
7,GTCCAGTCACAGCAAAAGTAGCCTGGTCAG,-0.709
8,CTGTGTCACGTACCGGCTAGACAAACAGCT,-1.13
9,TCCCCCCTCCTCATTGAGAGTTTTAGGCTG,2.03
10,AGACAACATCGAAGACTTCATGATAACACT,-1.15
11,GCACCAGCCCATTAATCAAGGCTGCCTGGC,-1.25
12,CAGGAGGACTGGATCAATGGATCCACTCAG,-1.1
13,GGGCAGCCCTGTTTAGGAGGAAATAGAGAG,-0.965
14,ACCCAAGATCAAAGAGAAAGTAAGTGCACA,0.2
15,CTTATCACTTGGTGGACATGGTTCACTGAT,1.82
16,AAGGTCCCCACCACAAAGGCCAGAGAAAGA,1.73
17,CCTGGAAAAGTCTCAGGGGCCTTGCAATGA,-1.22
18,TGTCAATGACCCTAATGGGGTACTTGAACC,2.72
19,CTCCCTGGGCAGTGCAGTATGCGCTCTGGG,-1.21
20,TCAAGAGAATTACAAACAGCCCTGACATTC,-1.2
21,AATTCCCAAGGGTATGTTTGTGATATTGTG,1.76
22,GGGGCATCGGTCTTTACACATCTGTTAGGA,1.03
23,TGGGCCCAGATATACAAGAAAGAAAGAATG,0.371
24,GACTCCAAAGGGCTGGAGACTGAGTAACTA,-1.16
25,TCCTATCACCATATCCCTGAGAGGCCAGTT,0.3

row,Sequence,binding signal (log2 normalized intensity)
1,AGCAACAGCTGCAGTGAAATTCTGGCCAAC,-1.09
2,TGGGCCACCTGAGACAGTTTATGCCAGCAA,-1.27
3,GTGTACTGGGCAGATAACAGCGAACATGAG,-0.61
4,AGTTCAGAGAGGAATCGGCAGTTTGGGCCT,-0.99
5,CCCAGCCAGGAGCAGAAAGGAGGCAGAGAC,-1.15
6,TGGGCAGGGGCATCCTCATTGCCTCTGGGC,-0.696
7,TGCACAAATTTCAGATATCTGAATGTACCT,1.65
8,CGGGAAAGGCCGGAGGGCGGGGCGGGGCAG,-1.09
9,TGTTCATTATGTCTTATCTACCTGGCTTGT,1.54
10,TCTGTGGTCAGGGCCTTTCCAGCAAATCCC,-1.09
11,GGCCCAGGGACTCAGGCACACAAAAAAAAC,-1.18
12,TTGCTAGATTCTTTCTTCCTTTTGAAAAAG,-0.902
13,AAGGCAAGATCATTCCAGGAATGTTCAAGA,-0.0989
14,GTACAGCCTGTGCTAAGTTTCAAAGAGGAG,-1.14
15,ACACTGGGAGGCAAATCTCTTGGTCATGGA,0.785
16,CCCTCAGCAACTGCAAGGCTGACCCGTGAA,1.4
17,ATAATGCATACGCTAGCTTTCTGGTCTTTG,1
18,TTGCGGATAGATATGTTGAAGTGACTAAAT,-0.668
19,GATAATAGTGGCTGAAAGTACTGGCCAGAT,0.455
20,ACATTCTTTCTGCATCGCAGTCGCCTGCAA,-1.13
21,TTTTACAATGCAAACCTAACAGGCTGTAAG,-1.14
22,CTCTCCCAGCGGGTCATTAATTCCCAGGAA,0.616
23,GCCTTGCCGTGCTGCGGTGGGCTCCACCCA,-1.21
24,GCTTTTGTCATGACCTTCGCTCTTGATGGG,3.98
25,CTCATAACTAGGGTTCCAAGACCAAGCAAG,-0.942

row,Sequence,binding signal (log2 normalized intensity)
1,GGAAAAGATTAGATTGCTCAGAGGCACAGT,-1.17
2,TTCCCGCCCAAGGAGACAGGCTTTGAGCAT,-0.909
3,GAGCCCTTAGGGTCAATGGGACATTGCATT,1.76
4,CACTGACTAAAGCAAGTCAGATGGCCAAAG,-1.08
5,CACAGAAGTCTTTCCCTGCCAGTTCCATGT,1.17
6,AAGGCAGAGCACTAAATCTCTCCTAGAGAA,-1.33
7,TTGGTTGTTCTGTTTAACAGAGATTTGCAG,0.558
8,ACATAGCAGGCATACCAGGCAGAGGGTTAA,-1.04
9,CCCTAGACACCGGGTGAAGGTTAAATAGCT,-0.99
10,ATTCCCTTCCCCTCCTTAGGAAAGAGACAT,2.36
11,TCCTTCTTGCTTAGGATAGGGTCAGTCTTT,2.25
12,AGCAGTGACTTGAGAGGCCAGTTTCTCCAC,-1.03
13,ATACTGGATAACCTTCCAGACAGAGAGGTC,1
14,AGCATGGTCCACAGCTTTGGGCATACAAAA,-1.15
15,AAATCTGCCCAACCTTTGCCCCTGGAGGGA,3.74
16,AGCAAGAGCACAAGAACAAAAACTGTTTCT,-1.22
17,CCCTCCTCCTTTTTTTCCCCTCCCTCAGCT,3.64
18,AGAAGTAAGAAATCAGGAGCAAAGGTTGGG,1.57
19,AGCAGGTGTTCACCTTCAGTCACACTGTTT,0.0787
20,AGGGGGCAGGAGCCCAAGAAGCGTCAGTTG,-1.09
21,AATCGAATTGTGAAACTCAGAATCAGGGGA,-1.18
22,TCTCGCTGCTTCGGCCTTTGACCTCGTGAT,6.52
23,CTTTGTTCCCTGGCTCACTGACTCAGTCTT,-1.02
24,TAAAGCCCTGGGGTAATAAAAGTGTACAAA,0.211
25,GAGGGAGACAACCTTTGGTCACTTGTAAGA,2.82

row,Sequence,binding signal (log2 normalized intensity)
1,CAGAATTGCTGCTCCCCCTCCCAAATCGGT,4.41
2,CCTTTGGTGCCTCTTTTTTCTTGTTGACTT,2.44
3,CTGGAGGGACTGTGATGAAGGCAGAAAGAA,-1.02
4,GGCCTCAGGTTCAAAGGGCTTAATCTTTCC,1.49
5,ACAGCACCTCTCTGATGCCATGATAAGCAG,-1.12
6,CATAAACACAGACACACATGAGCTAGTGCT,-1.16
7,GGGTTCACATTCCAGCTCTGTGACTTTACC,1.42
8,AGCCCCACAGAGCAAAGGTCATGCATAGAA,4.52
9,ACAACCCCTACTGTACCCTATGCACCCCAC,4.27
10,TAAGGAGGTAGAGTCTAAGGCTAAAACATC,-1.17
11,GGCTCAGCATTCTGAGGGCCTCCAATAGGG,-1.29
12,GCCCAACTCGGAGGACTGAGCCCGCTCCAC,-1.23
13,GGGCATTACTTGCTGGAGAAAGAGGGGAAG,-0.991
14,GAGTTTAAATGACCTCTGCCCTTCCACCCA,4.71
15,ATGAAAGCGCCTTGCTTTCTGCCCAGGGAG,-0.941
16,GAGATAAGATCAGTATAGTTAGGGCCTTGC,0.213
17,TATCAGTGTAACTATTACTGGACAGCCAGC,-1.06
18,ATAGGCTGGGATGATTTCAGCTTATAAATC,-1.12
19,TTGCAAGTCTGAGGCTGCTCTCTGTCCCTG,0.522
20,GTCTGCAGCTGAACCATATTCTTTACATTT,0.995
21,TGAGAGAGCCCCTGTGATACAACGGTTCAA,0.456
22,TGTGGCTGCCAAGACACAGAGAAAAAGAAG,-1.04
23,GGTCATCAGGACTCTAACTGGCTTTAAGAG,-0.791
24,GTGATTAGTGCAAGAATCCAAGAATTCGAT,-1.13
25,GAGGGCGAGGCCGAGCCTCAGCCGGGAGAG,-1.04

row,Sequence,binding signal (log2 normalized intensity)
1,CTGAGAGTCACTGCCTTATCGTATTCTTAT,0.822
2,CAGAGATTGGAATCTCTGCACAGCATAGAA,-1.23
3,GAGGAGCACAGAAGGAGAGAGAGGGAGAGT,-1.1
4,AAAGAATAACGTTACAGTGGAGAAACCTGA,-1.22
5,CTTATCAGCAGGAGACCTGAAACTAGACCA,-1.1
6,CACTAATCTGTCAGAAAACCCACGCCCACC,2.46
7,GGTTGTAAAATGAGGTCAGCATGGTGGGAG,0.99
8,CACATTTCAGGAATGTTTTATGTGCTCCAT,1.57
9,AATTGAGATAAACATGAAACAGTCACAGTT,-1.07
10,GCCCCGAGATAACCCCTCTCCAAGCCAGAA,4.09
11,AGGGAGGAAGGCAACCACAGCCTCTGCATT,-1.18
12,ATATCAACTGGACAAATTCCTGGGAACTGC,-1.11
13,TTCATAGGTCCTCTTGGAAGATGCCTTTTT,1.55
14,ATGAAGATGCAGAACAAGGTAGCCACAGAA,-1.04
15,TCTCTGTTGACCACCTGCCCCAGGAATGCC,2.29
16,TTCACTTGCCACATTTATTGTGAGATTACG,1.23
17,AAGTCTCTAGATGGGGTTGAGCAGACTAAA,-0.224
18,CCTCCCCTCCCCCTTGGTGTTTAAACACAT,4.78
19,AACCACAGAAATGCCGCTAATGTATTTCGG,-0.619
20,ATGACCAGCAGGGTGACCAGTGGACCATGA,2.17
21,GGACCGCAGAGGCTGGAGCAGGCCATGTGC,-1.28
22,GTGGACTTTCACCTCCACCAGATAGCAAGG,3.25
23,TTGCCCAGAGGGGTTCCTCAGTAAATGCTG,-1.17
24,GTCAGAGTGCTGCATGCAAAAAGGCTGACC,1.41
25,GAAAAGTGTTTGCCAAAGGATATCTTTAAT,0.994

row,Sequence,binding signal (log2 normalized intensity)
1,GCGGAGAGGGTTCTCACTCCTCTATCAGTA,-1.08
2,TGCTGGAAACCTAGGAGTTATCTAAGACCC,-1.15
3,GGGCCATGACCTTTACCCCCATTTGGTAAT,6.29
4,AAGGTCAAACAGTGCACTGAAATCTCTCAA,-1.1
5,CAGTGATATTCTCTCGTCACCTCCACCCAC,2.81
6,GCTCTGGCCACTCCCTGGGCAGTGCAGTAT,-1.06
7,TCCCCACCCCCAACTTCCCCAACCCTTGCA,6.3
8,TCCCAGCATTCCAAGTGAGTAAGGAAAGCC,-1.17
9,AGACCCTCTTTTCTTTGTACCGTATTTCAG,1.74
10,GCAACTACTCTCTCTTCTGGAGGAGGATCA,-1.04
11,TAGGTATGCCCCATGGTAAGAACTACAGTT,0.881
12,CATCCTGAACAAATGTACTGGATATAGCCA,-0.545
13,TTGCCATGACCTTTGAAGCCCAGAACACTC,3.59
14,CCCAGCGGAAGTCCAGTGGTGTCTTACCGG,0.489
15,TTCTGGAGGATTAGTGGGAGATAAGGTGGA,0.815
16,TCTTAGGAAAGCACAGCTGATTGCTCAACC,-1.19
17,TGGTTCCTGGAAAAGTCTCAGGGGCCTTGC,-0.0705
18,TTGGACAGAGTTTGTGGTGTTTGTGGCATT,2.07
19,AAGGTCAATCTGGATTGTACTGTGTCTTGA,2.52
20,TGTTATCTCAGTAGACTAACGTATGGACTT,2.63
